Data taken from PubChem BioAssay AID504332 (National Center for Advancing Translational Sciences (NCATS), 2011).
Where “and” joins values, the source holds several entries; their conditions need not be identical. Equal values may be shown once. Screen size: about 350,000 compounds; about 31,000 (8.9%) were called active. Inconclusive results, whose numbers are uncertain, are shown with a selection of clear calls. The call rests on the fitted dose curve; in most records, active means well fitted inhibition curve with a large enough effect; inconclusive means small, poorly fitted or top-dose-only effect; inactive means no such curve, though single readings can be large or run the other way. Potencies beside an inconclusive call are fits to weak or partial responses and may not hold up. The source holds several records for some structures; these can differ, active in one and inactive in another.

These compounds were tested against Histone-lysine N-methyltransferase EHMT2 (Homo sapiens) (UniProt Q96KQ7) (assay: qHTS Assay for Inhibitors of Histone Lysine Methyltransferase G9a). Conditions: G9a H3K9 monomethylation, AlphaScreen, 2 h; activity, negative = inhibition: at 59 µM (top of the series) unless noted.
Description: Methylated lysines, on the N-terminal tails of histone proteins serve as epigenetic markers to recruit factors that can then modify local chromatin structure to lead to functional consequences. G9a and other members of the SUV39 family of the SET domain-containing superfamily of histone lysine methyltransferases (HMT) have been identified to specifically methylate Lys9 of histone H3 (H3K9). G9a catalyzes the mono- and di-methylation of H3K9 in mammalian euchromatic regions, where the resulting H3K9me2 is indicative of transcriptional repression. […] The inhibition of G9a will result in transcriptional activation and work synergistically with DNA methyltransferase and histone deacetylase inhibitors, to kill cancer cells. This qHTS assay for identification of G9a inhibitors is a chemiluminescence based AlphaScreen (PerkinElmer). Methylation of biotinylated-histone peptide is measured through specific antibody-based detection, in conjunction with streptavidin-coated donor and anti-IgG antibody-coated acceptor beads. The method is particularly well suited for detection of inhibitors acting by the desired histone peptide competitive mechanism and is applicable to testing other HMTs. Although AlphaScreen has significant advantages with its utility in a variety of epigenetic target assays, the primary screening data provided in this deposition should be used with caution due to the prevalence of screening artifacts. An AlphaScreen counterscreen is highly recommended to be run against any putative actives to eliminate non specific artifacts. Alternatively, one can use other AlphaScreen assays in PubChem to filter out promiscuous hits. Quinn et al. A chemiluminescence-based method for identification of histone lysine methyltransferase inhibitors. Mol Biosyst 6(5): 782-8. 2010. PMID: 20567762 [2] Baell,Holloway. New substructure filters for removal of pan assay interference compounds (PAINS) from screening libraries and for their exclusion in bioassays. J Med Chem. 53(7):2719-40. 2010. PMID: 20131845 NIH Molecular Libraries Probe Production Network [MLPCN] NIH Chemical Genomics Center [NCGC] Structural Genomics Consortium (SGC) NIH Grant: 5U54 MH084681-02
To each well of a 1,536w plate, 2ul of HMT enzyme (final 20nM) were added, using a nanoliter dispenser. The G9a- and GLP-inhibitor BIX-01294 (CID: 25150857) are used as an intraplate control, with a 16-point titration in duplicate. A Kalypsys pin-tool transferred 23nl of library compound solution in DMSO to each well. Following a 15 min incubation of enzyme with compounds at room temperature, 1ul mixture of b-H3K9 peptide substrate (final 500nM) and SAM cofactor (final 20uM) were added. Reactions were allowed to proceed at room temperature for 2 hours. Methylated b-H3K9 peptide product was detected with 0.5 ug/mL rabbit polyclonal anti-monomethyl histone H3K9 antibody (Abcam Inc., Cambridge, MA) and 20 ug/mL each streptavidin-coated donor and anti-rabbit IgG acceptor AlphaScreen beads. Antibody and beads were added in a 1ul dispense, for a final volume of 4ul, and plates were incubated, protected from the light, for 10 min at room temperature. Microplates were then read on an EnVision multilabel plate reader using the 1,536 plate HTS AlphaScreen aperture (excitation time 80 ms, measurement time 240 ms).
Further: nearly all actives have a fitted effect of over 75% in size.
On the % scale 0 is the no-effect control and ±100 the full control effect; potency means the concentration at half of the fitted maximal effect; tags describe the fitted curve by direction and shape.

Sequence of UniProt Q96KQ7 (Q96KQ7 whole entry, looked up, the tested form may be a part): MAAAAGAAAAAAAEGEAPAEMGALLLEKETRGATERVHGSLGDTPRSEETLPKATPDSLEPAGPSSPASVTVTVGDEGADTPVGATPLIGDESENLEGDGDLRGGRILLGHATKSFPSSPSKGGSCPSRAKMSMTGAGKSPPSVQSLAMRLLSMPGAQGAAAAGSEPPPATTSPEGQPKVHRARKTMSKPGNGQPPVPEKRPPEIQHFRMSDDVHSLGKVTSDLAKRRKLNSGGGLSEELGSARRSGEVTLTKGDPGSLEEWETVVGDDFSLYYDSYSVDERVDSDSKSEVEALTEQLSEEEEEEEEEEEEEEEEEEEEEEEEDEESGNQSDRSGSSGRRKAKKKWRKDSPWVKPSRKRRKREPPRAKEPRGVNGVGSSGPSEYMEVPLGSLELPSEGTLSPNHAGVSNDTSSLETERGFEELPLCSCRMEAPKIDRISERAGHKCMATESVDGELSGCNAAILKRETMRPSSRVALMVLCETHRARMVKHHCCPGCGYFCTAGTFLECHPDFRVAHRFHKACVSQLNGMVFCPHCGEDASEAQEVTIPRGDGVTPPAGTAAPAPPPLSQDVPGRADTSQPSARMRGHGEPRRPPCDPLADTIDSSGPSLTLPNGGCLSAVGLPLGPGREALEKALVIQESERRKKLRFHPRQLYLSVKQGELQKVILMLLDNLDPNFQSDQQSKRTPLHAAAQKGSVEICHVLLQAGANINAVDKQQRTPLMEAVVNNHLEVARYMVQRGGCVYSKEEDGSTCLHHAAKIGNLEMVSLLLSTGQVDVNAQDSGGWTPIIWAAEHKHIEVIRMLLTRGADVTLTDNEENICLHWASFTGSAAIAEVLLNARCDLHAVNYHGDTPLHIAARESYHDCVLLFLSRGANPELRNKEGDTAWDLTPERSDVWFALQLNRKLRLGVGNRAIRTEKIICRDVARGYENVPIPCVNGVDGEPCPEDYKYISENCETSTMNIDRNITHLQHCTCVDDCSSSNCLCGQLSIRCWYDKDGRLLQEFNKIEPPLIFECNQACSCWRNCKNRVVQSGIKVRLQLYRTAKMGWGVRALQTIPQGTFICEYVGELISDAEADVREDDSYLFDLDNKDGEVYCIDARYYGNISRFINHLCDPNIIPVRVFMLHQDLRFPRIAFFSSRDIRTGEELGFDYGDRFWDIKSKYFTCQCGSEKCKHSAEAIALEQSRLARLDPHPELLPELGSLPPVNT

Compound | Potency | activity, negative = inhibition
C[C@H]1C[C@@H](C)C(=O)[C@@H]([C@H](O)CC2CC(=O)NC(=O)C2)C1 | inactive | –
Cc1ccc(Cn2nnnc2CN2CCC(n3nnc4cc(C)ccc43)CC2)cc1 | inconclusive: 50.1 µM [inhibitor, partial curve] | –
CC1(C)C(c2ccccc2)=NC(c2cccnc2)N1O (stereo not drawn) | inconclusive: 0.794 µM [inhibitor, partial curve, poor fit] | –
CC(C)CN1CCC2(CC1)CCN(C(=O)Oc1ccccc1)CC2 | – | inactive: -6.91% [at 12.7 µM]
C[N+]1=C2CCCCCN2C(O)(c2ccccc2)C1 (stereo not drawn) | active: 31.6 µM | –
Nc1c(C(=O)NCc2ccco2)c2nc3ccccc3nc2n1CCN1CCOCC1 | active: 50.1 µM | –
COC(=O)C1=C(C)N(Cc2ccco2)C(=O)/C1=C\c1ccc(N(C)C)cc1 | inconclusive: 31.6 µM [inhibitor, single point] | –
NC(N)=NC(=O)c1nc(Cl)c(N)nc1N | active: 33.6 µM | –
O=c1c2ccccc2nc(/C=C/c2ccc(F)cc2)n1-c1ccccc1O | – | inactive: 7.81% [at 102 µM]
CNC(=O)OCc1n(C)cc[n+]1C | active: 6.31 µM | –
Cn1nc(N)c2c1N=P(N1CCOCC1)(N1CCOCC1)N=C2c1ccccc1 | inconclusive: 79.4 µM [inhibitor, partial curve] | –
CCOC(=O)C1CCN(Cc2c(F)cccc2Cl)CC1 | active: 3.98 µM | –
S=C(NC1CCCCC1)N1CCC(c2cnc[nH]2)CC1 | inconclusive: 70.8 µM [inhibitor, single point] and inconclusive: 21.2 µM [inhibitor, single point] | –
Cc1ccc(C2(O)CCN3CCCCC32)cc1 (stereo not drawn) | inconclusive: 89.1 µM [inhibitor, single point] | –
Nc1ccc2ccc3cccc[n+]3c2c1 | active: 35.5 µM | –
COc1ccc(C(=O)C(C)(C)NO)cc1 | inconclusive: 2.24 µM [inhibitor, partial curve, poor fit] | –
CCN(CC)CCCNC(=O)c1c(O)c2ccccc2n(Cc2ccccc2)c1=O | – | inactive: -21.8% [at 0.501 µM]
COc1ccc(-n2ccnc(NCCc3ccc(Cl)cc3)c2=O)cc1OC | inconclusive: 12.6 µM [inhibitor, partial curve] | –
Oc1cc[c]([Hg][Cl])cc1 | inconclusive: 0.891 µM [inhibitor, full curve, poor fit] | –
COc1ccc(OC)c(N2C(=O)NC(=O)/C(=C/c3ccc([N+](=O)[O-])s3)C2=O)c1 | active: 11.2 µM | –
CC(=O)NC(Cc1ccc(N(CCCl)CCCl)cc1)C(=O)NC(CC(C)C)C(=O)O (stereo not drawn) | active: 50.1 µM | –
Cc1cc(Br)c(NC(=O)CN2CC=C(c3ccccc3)CC2)c(Br)c1 | – | inactive: -7.66% [at 102 µM]
O=C(/C=C/c1cccs1)c1cc(Cl)ccc1OC(=O)N1CCOCC1 | inconclusive: 6.31 µM [inhibitor, partial curve, poor fit] | –
CC/C(=N\Nc1ccccc1)c1c(O)[nH]c(=O)[nH]c1=O | active: 44.7 µM | –

Compound | Potency | activity, negative = inhibition
Cc1nnc(NC(=O)c2cccn(Cc3cccc([N+](=O)[O-])c3)c2=O)s1 | – | inactive: -6.04%
O=[N+]([O-])c1cccc2c([As](=O)(O)O)cccc12 | inconclusive: 0.501 µM [inhibitor, partial curve, poor fit] | –
COC(=O)C1=C(c2ccc(OC)c(OC)c2)C[C@@H]2CC[C@H]1N2C(=O)NCc1cccc2ccccc12 | – | inactive: -10.7% [at 0.501 µM]
COc1cc(C(=O)NC(=S)N2C[C@H]3C[C@H](C2)c2cccc(=O)n2C3)cc(OC)c1OC | active: 25.1 µM | –
C=C(C)[C@H]1[C@H]2OC(=O)[C@@H]1[C@]1(O)C[C@H]3O[C@]34C(=O)O[C@H]2[C@@]14C | – | inactive: 19.9% [at 21.5 µM]
CCN(C(=O)CSc1ncccc1C(=O)Oc1cccc([N+](=O)[O-])c1)c1cccc(C)c1 | inconclusive: 17.8 µM [inhibitor, single point] | –
CCC(C)n1c(O)c(C=NCCc2ccccc2)c(=O)[nH]c1=S (stereo not drawn) | – | inactive: 9.48% [at 102 µM]
Cn1c(=O)c2c(-c3ccccc3)n3c(c2n(C)c1=O)C(c1ccco1)Nc1ccccc1-3 (stereo not drawn) | inconclusive: 3.98 µM [inhibitor, partial curve] | –
Nc1ncnc2c1ncn2[C@@H]1O[C@@H]2CO[P@](=O)(S)O[C@H]2[C@H]1O | – | inactive: 8.73%
NC(=O)c1ccc(N=Cc2c(O)n(Cc3ccco3)c(=O)[nH]c2=O)cc1 | active: 39.8 µM | –
CN1[C@@H]2CCC[C@H]1CC(=O)C2 | – | inactive: 18.5% [at 21.5 µM]
O=C1NC(=O)N(c2ccc(F)cc2)C(=O)/C1=C/c1ccsc1 | active: 14.1 µM | –
N[C@@H](Cn1oc(=O)[nH]c1=O)C(=O)O | active: 10 µM | –
CCOc1ccccc1CN(CCc1ccc2c(c1)OCO2)Cc1ccc(CC)cc1 | inconclusive: 2.51 µM [inhibitor, full curve, poor fit] | –
O=C(O)CSCC(=O)N(Cc1ccccc1)c1nc(-c2ccccc2)c(-c2ccccc2)s1 | inconclusive: 70.8 µM [inhibitor, single point] | –
CC(C)CNC(=O)c1c(N)n(Cc2ccc3c(c2)OCO3)c2nc3ccccc3nc12 | – | inactive: -18.5% [at 102 µM]
Cc1nn(CCC#N)c2c1P(=S)(N1CCCC1)OC(c1ccc(F)cc1)=N2 (stereo not drawn) | active: 15.8 µM | –
Cc1ccc2ccccc2c1NC(=O)CNC1CCCCC1 | – | inactive: -14.9% [at 12.7 µM]
CN1CCN(c2nc([N+](=O)[O-])nn2C)CC1 | inconclusive: 89.1 µM [inhibitor, partial curve, poor fit] | –
CN1C(=O)C(=Cc2ccccc2OCc2ccccc2Cl)C(=O)N(C)C1=O | – | inactive: 30.4%
NC(N)=NOCC[C@H](N)C(=O)O | inactive and active: 31.6 µM | –
Cc1nn(Cc2ccccc2)c(C)c1C(=O)OCC(=O)NCc1ccco1 | inconclusive: 5.01 µM [inhibitor, full curve, poor fit] | –
N#Cc1ccc(CN2CCC3(CC2)CCN(C(=O)Oc2ccccc2)CC3)cc1 | – | inactive: 2.31% [at 12.7 µM]
CCSc1nnc(C(N)Cc2ccccc2)o1 (stereo not drawn) | – | inactive: 1.84% [at 12.7 µM]
